The supplement of paper PMC12217912
This is one part of the list. Sequences were assembled here from the parent chain. Inactive controls read about 0.05.

B1: TEV protease; numbered along this chain (parent)
chain: MGESLFKGPRDYNPISSSICHLTNESDGHTTSLYGIGFGPFIITNKHLFRRNNGTLVVQSLHGVFKVKDTTTLQQHLVDGRDMIIIRMPKDFPPFPQKLKFREPQREERICLVTTNFQTKSMSSMVSDTSCTFPSGDGIFWKHWIQTKDGQCGSPLVSTRDGFIVGIHSASNFTNTNNYFTSVPKNFMELLTNQEAQQWVSGWRLNADSVLWGGHKVFMVKPEEPFQPVKEATQL

Variants of: B1
Assay: raw area under fraction-flipped curve 0-4 h after induction (AUC4h, not background-subtracted), DNA-recorder readout of cleavage of the substrate (dimensionless); higher = more cleavage of the substrate by the protease variant
Details: temperature: 34 °C; time window: 0-4 h after rhamnose induction
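Also: Bxb1 expression induced with 0.2% (w/v) L-rhamnose at OD600 near 0.5, cultures sampled hourly, flipped fraction per protease–substrate barcode pair counted by paired-end Illumina sequencing.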

Row | Variant | area with substrate ECLYFQS | area with substrate EDLYFQS | area with substrate EGLYFQS | area with substrate EILYFQS | area with substrate ELLYFQS | area with substrate EMLYFQS | area with substrate EPLYFQS | area with substrate EQLYFQS | area with substrate ERLYFQS | area with substrate EVLYFQS | area with substrate EWLYFQS | area with substrate EYLYFQS | area with substrate EKLYFQS | area with substrate ESLYFQS | area with substrate EELYFQS | area with substrate EFLYFQS | area with substrate EHLYFQS | area with substrate ETLYFQS
1 | E231Y | 0.0741 | 0.105 | 0.0912 | 0.0916 | 0.086 | 0.136 | 0.0753 | 0.0791 | 0.0866 | 0.076 | 0.0787 | 0.0796 |  |  |  |  |  | 
2 | G162T | 0.0877 |  |  | 0.085 | 0.0856 | 0.104 | 0.128 | 0.0711 | 0.0958 | 0.0845 |  | 0.134 | 0.0988 | 0.0968 |  |  |  | 
3 | G162Q | 0.134 |  | 0.103 | 0.0827 | 0.0753 | 0.117 |  |  | 0.0874 | 0.0656 | 0.105 | 0.0687 | 0.107 | 0.0885 | 0.099 | 0.0793 | 0.0997 | 
4 | T174M | 0.105 | 0.0883 | 0.107 | 0.0805 | 0.0871 | 0.143 | 0.122 |  | 0.0856 | 0.101 |  | 0.087 |  | 0.0926 |  |  |  | 0.0836
5 | E195W | 0.0732 |  | 0.0647 |  |  |  |  |  | 0.0938 | 0.0665 |  | 0.1 |  |  |  |  | 0.0996 | 
6 | F49N |  | 0.0717 |  | 0.0673 |  | 0.0497 | 0.0342 |  | 0.0524 | 0.0648 | 0.0454 | 0.0535 |  |  | 0.0552 |  | 0.0628 | 0.0512
7 | A170L | 0.0574 |  | 0.0686 | 0.0662 |  |  | 0.0825 |  |  | 0.0494 |  | 0.0582 | 0.0624 |  |  |  |  | 
8 | A170P | 0.0463 | 0.0554 |  |  |  |  |  | 0.0553 | 0.0778 |  |  |  |  | 0.0456 |  |  |  | 
9 | S169L | 0.0735 |  |  |  |  | 0.029 |  | 0.051 | 0.0632 | 0.0724 |  |  |  | 0.042 |  |  |  | 0.0592
10 | T233V | 0.0876 | 0.0963 |  |  | 0.0926 |  |  | 0.124 | 0.0945 | 0.0849 | 0.11 |  |  | 0.0957 |  |  |  | 
11 | L235V | 0.168 |  |  | 0.0803 |  |  | 0.102 | 0.109 | 0.0939 |  |  |  |  |  | 0.0917 |  |  | 0.0962
12 | D149E | 0.0987 | 0.0951 | 0.0699 | 0.107 | 0.0818 |  | 0.144 | 0.0883 | 0.0934 | 0.0681 | 0.0947 | 0.0667 |  | 0.0962 | 0.12 |  |  | 0.134
13 | H47T |  | 0.0549 | 0.0695 | 0.0462 | 0.0513 | 0.0516 | 0.0564 | 0.0508 | 0.0811 | 0.0586 |  | 0.0554 | 0.0624 | 0.063 |  | 0.0676 | 0.0632 | 0.0614
14 | T72L |  | 0.112 | 0.0764 | 0.0661 |  |  |  |  |  | 0.12 | 0.146 |  |  |  |  |  |  | 
15 | G63P |  | 0.0799 | 0.0685 | 0.0531 |  | 0.0861 |  | 0.0604 | 0.0589 | 0.0664 | 0.0416 | 0.0628 | 0.0713 | 0.073 | 0.065 |  | 0.0817 | 0.082
16 | D137M | 0.0932 | 0.0946 | 0.0999 | 0.0715 |  | 0.0945 |  | 0.0959 | 0.102 | 0.0948 |  | 0.11 | 0.0947 | 0.0938 | 0.104 | 0.102 | 0.113 | 0.11
17 | D161L | 0.057 | 0.0724 | 0.0612 | 0.0927 |  |  | 0.0752 | 0.0669 |  | 0.043 |  | 0.0556 |  | 0.0609 | 0.0854 |  |  | 

Row | Variant | area with substrate ECLYFQS | area with substrate EDLYFQS | area with substrate EGLYFQS | area with substrate EILYFQS | area with substrate ELLYFQS | area with substrate EMLYFQS | area with substrate EPLYFQS | area with substrate EQLYFQS | area with substrate ERLYFQS | area with substrate EVLYFQS | area with substrate EWLYFQS | area with substrate EYLYFQS | area with substrate EKLYFQS | area with substrate ESLYFQS | area with substrate EELYFQS | area with substrate EFLYFQS | area with substrate EHLYFQS | area with substrate ETLYFQS
18 | D161N | 0.0736 | 0.0895 | 0.0984 | 0.04 |  | 0.0914 | 0.0913 | 0.0842 |  | 0.0255 | 0.0679 |  | 0.0574 | 0.055 | 0.0783 |  | 0.0828 | 0.0848
19 | G214T | 0.0831 | 0.119 |  |  | 0.0986 |  | 0.129 |  |  | 0.0753 | 0.0752 |  | 0.0725 | 0.0561 | 0.102 |  | 0.096 | 
20 | K216E | 0.0828 |  |  | 0.0713 |  |  |  |  |  |  |  |  |  |  |  |  |  | 
21 | Q227H | 0.0857 |  | 0.0949 | 0.0693 | 0.0842 | 0.112 | 0.137 |  |  | 0.0798 |  |  |  | 0.105 |  | 0.113 | 0.104 | 0.0945
22 | V220K | 0.095 |  |  |  | 0.107 |  | 0.144 | 0.12 | 0.127 |  | 0.0797 | 0.0944 | 0.109 | 0.0895 | 0.119 | 0.123 | 0.0984 | 
23 | V220F | 0.101 | 0.102 | 0.099 |  | 0.0819 | 0.0984 |  | 0.125 | 0.123 | 0.14 |  |  |  | 0.103 | 0.121 | 0.103 | 0.119 | 0.0949
24 | S209Q | 0.137 | 0.159 |  | 0.0871 |  | 0.115 | 0.128 | 0.0999 |  |  | 0.0994 |  | 0.0451 | 0.118 |  |  |  | 
25 | W199A | 0.0575 |  |  | 0.0681 | 0.0631 | 0.0776 | 0.0726 |  | 0.0435 |  |  |  |  | 0.0717 |  |  |  | 0.0368
26 | W199K | 0.0701 |  |  | 0.0761 |  | 0.0649 |  |  | 0.0628 |  | 0.0617 |  |  | 0.0705 | 0.0617 |  |  | 
27 | Q151V | 0.102 | 0.102 | 0.0873 | 0.0914 |  |  |  | 0.0954 |  | 0.116 | 0.0893 | 0.102 | 0.0894 | 0.0874 |  |  |  | 0.126
28 | M188K | 0.104 |  | 0.0556 | 0.103 |  | 0.105 | 0.135 | 0.141 |  | 0.0989 |  |  | 0.0775 | 0.111 | 0.086 | 0.093 |  | 
29 | K185R | 0.0975 |  |  |  |  | 0.13 |  | 0.102 |  |  | 0.0989 |  |  | 0.114 |  |  |  | 
30 | N206W | 0.0588 | 0.0846 | 0.0801 | 0.0563 | 0.106 | 0.0907 | 0.0906 | 0.0475 | 0.0917 |  | 0.0761 | 0.0823 | 0.0809 | 0.09 | 0.102 | 0.0773 |  | 
31 | N206Q | 0.0655 |  |  | 0.0736 | 0.0969 | 0.0978 |  | 0.109 | 0.0908 | 0.0922 |  |  |  | 0.0987 |  |  |  | 
32 | N206V | 0.0992 | 0.132 |  | 0.0646 | 0.0837 | 0.0383 | 0.0741 | 0.134 |  |  |  |  |  |  |  | 0.0655 |  | 
33 | N178P | 0.0552 |  |  |  | 0.051 |  |  | 0.0652 |  |  |  |  | 0.0618 | 0.052 | 0.0555 |  |  | 
34 | G153D | 0.0403 |  | 0.0237 | 0.0158 |  |  |  | 0.0374 | 0.0419 | 0.0449 | 0.0512 |  |  |  | 0.0573 | 0.0259 |  | 0.0354
